Measurements from ChEMBL document CHEMBL4888484, “Replenishing the malaria drug discovery pipeline: Screening and hit evaluation of the MMV Hit Generation Library 1 (HGL1) against asexual blood stage Plasmodium falciparum ,using a nano luciferase reporter read-out” (2022).
Screen size: about 150,000 compounds; about 540 (0.36%) showed an effect of 50% or more. Some of the results follow.

The molecules below were run on Plasmodium falciparum (assay: Primary screen in NF54 nanoGlo assay, in single point, at 2uM, 72h; a lower Z score goes with more inhibition). Settings: timepoint 72 hour.
Format: functional, Erythrocyte
`O=C(NCc1cc2c(cc1OC(F)F)OCO2)Nc1ccsc1Cl` was tested, and the “% Inhibition” value was 0% and the Z score was -0.07. With `Cc1noc(C)c1[C@@H](C)CC(=O)N1CCc2cccc(F)c21` the “% Inhibition” value was -14% and the Z score was 1.57. For `CS(=O)(=O)N[C@H](c1nccs1)C1CC1`, the “% Inhibition” value was 31% and the Z score was -3.49. `CCN1CCC(NC(=O)N(Cc2ccc(-c3ccccc3C)s2)C(C)C)CC1` was tested, and the “% Inhibition” value was -7% and the Z score was 1.01. For `CC1(C)CN(Cc2ccc(C#N)cc2Br)CC[S@@+]1[O-]`, the “% Inhibition” value was -4% and the Z score was 0.36. `CCN1CCN(C(=O)CCN(CC(C)C)c2nc(-c3ccc(F)cc3)nc3cc(Cl)ccc23)CC1` was tested, and the “% Inhibition” value was 7% and the Z score was -0.81. With `CC(=O)c1cccc(NC(=O)Cn2c(C)cc(=O)n3nc(-c4ccccc4)nc23)c1` the “% Inhibition” value was -4% and the Z score was 0.49. In the case of `Cc1nn(C)cc1-c1nn(Cc2ccc(F)cc2Cl)c(-c2cn(C)nc2C)c1Cl`, the “% Inhibition” value is reported as 34% and the Z score is reported as -3.87. With `CN(C)C(=O)Nc1cccc(CNC(=O)c2cn(C)nc2-c2cnn(C)c2)c1` the “% Inhibition” value was 8% and the Z score was -1.1. In the case of `O=C(CC1CCCC1)NCc1ccc2c(c1)CCN2C(=O)c1ccccc1`, the “% Inhibition” value is reported as 6% and the Z score is reported as -1.09. For `CN(CC(=O)N1C[C@@H]2CC[C@H]1CN(C(=O)N(C)C)C2)Cc1ccccc1F`, the “% Inhibition” value was -14% and the Z score was 1.5. In the case of `Cc1ccn2c(NC(=O)CC3CC4CCC3O4)nnc2c1` (stereo unspecified), the “% Inhibition” value is reported as 6% and the Z score is reported as -1. With `O=C1CCCCN1CC(=O)N1CCC[C@H](CCc2ccc(F)c(F)c2)C1` the “% Inhibition” value was -19% and the Z score was 2.64. In the case of `COc1ccc(N2CCN(C(=O)Cn3cccc3-c3nc(-c4ccc5c(c4)OCO5)no3)CC2)cc1`, the “% Inhibition” value is reported as -6% and the Z score is reported as 0.82. In the case of `CCCN1CCC[C@H]1C(=O)NS(=O)(=O)c1ccc2c(c1)CCCC2`, the “% Inhibition” value is reported as 6% and the Z score is reported as -0.58. With `Cc1ccn(CCC(=O)Nc2ccc(C)c(N(C)C)c2)n1` the “% Inhibition” value was -5% and the Z score was 0.93. `O=C(NC1CCCCCCC1)c1cccnc1O` was tested, and the “% Inhibition” value was -8% and the Z score was 0.75. In the case of `Cc1noc(C)c1S(=O)(=O)N(C)Cc1ncc(C(C)(C)C)o1`, the “% Inhibition” value is reported as -3% and the Z score is reported as 0.38. In the case of `Cc1ccc(Nc2c(C(=O)NCc3ccc(F)cc3)cnc3c2c(C)nn3C)cc1`, the “% Inhibition” value is reported as 36% and the Z score is reported as -4.03. In the case of `Cc1ccc([C@@H](CC(=O)N2CCN(c3cccc(C(F)(F)F)c3)CC2)c2c[nH]c3ccccc23)cc1`, the “% Inhibition” value is reported as 2% and the Z score is reported as -0.2. In the case of `O=C(NCc1ccc(F)cc1)Nc1nc2c(s1)C(=O)NCCC2`, the “% Inhibition” value is reported as -10% and the Z score is reported as 1.94. `CCc1ccc([C@H]2NCCc3[nH]cnc32)nc1` was tested, and the “% Inhibition” value was 55% and the Z score was -5.21. `C=CCNCc1cc(Cl)ccc1OC` was tested, and the “% Inhibition” value was -9% and the Z score was 1.42. `CC(C)Cn1cncc1CN(C)Cc1ccccn1` was tested, and the “% Inhibition” value was -7% and the Z score was 1.26. In the case of `CC(NC(=O)c1ccoc1)C1CC2CCC1C2` (stereo unspecified), the “% Inhibition” value is reported as -1% and the Z score is reported as 0.16. `Cc1ccc(CNC(=O)N[C@@H](C)Cc2ccc(C)s2)cn1` was tested, and the “% Inhibition” value was -8% and the Z score was 1.57. With `Cc1nn(C)c(C)c1CNC(=O)[C@H]1CCCN(c2nnc3ccccn23)C1` the “% Inhibition” value was -8% and the Z score was 0.9. With `CCn1c(=O)c(C(=O)CN2CCN(S(=O)(=O)c3ccccc3)CC2)c(N)n(Cc2ccccc2)c1=O` the “% Inhibition” value was -11% and the Z score was 2.13. With `CC(=O)c1ccc(OCc2nc(-c3ccoc3)no2)c(C)c1` the “% Inhibition” value was -10% and the Z score was 1.29. For `Cc1nc(C)c(-c2cc(C)c3c(C)nc(C)nc3n2)c(N)n1`, the “% Inhibition” value was -9% and the Z score was 1.21. With `Cc1cnn(CCN[C@@H](C)c2nc(C3CC3)no2)c1` the “% Inhibition” value was -6% and the Z score was 0.93. `O=C(N[C@H]1CCN(C2CCCCC2)C1=O)c1cc2ccccc2[nH]1` was tested, and the “% Inhibition” value was 4% and the Z score was -0.56. In the case of `C[C@]1(c2ccc(Cl)cc2)CC(=O)N(CC(=O)N2CCCCCC2)C1=O`, the “% Inhibition” value is reported as 3% and the Z score is reported as -0.38. In the case of `Cc1cc(-n2nc(C)nc2C2(Cn3ccnc3)CC2)ccn1`, the “% Inhibition” value is reported as -8% and the Z score is reported as 0.99. `Cc1ncccc1CNC(=O)Nc1ccc(C2CCC2)cc1` was tested, and the “% Inhibition” value was 3% and the Z score was -0.54. In the case of `Cc1ncsc1C(=O)[C@H](C#N)c1nc2cc(F)ccc2s1`, the “% Inhibition” value is reported as -1% and the Z score is reported as 0.18. `Cc1nonc1CC(=O)N[C@@H](C)c1cc(Cl)cc(Cl)c1F` was tested, and the “% Inhibition” value was 1% and the Z score was -0.13. For `CCCCN1CCc2ccc(NC(=O)N(C)Cc3cc(C)on3)cc21`, the “% Inhibition” value was -5% and the Z score was 0.74. In the case of `CCCOC1(CNC(=O)c2ccc3nnn(C)c3c2)CCCCC1`, the “% Inhibition” value is reported as -2% and the Z score is reported as 0.17. For `CN(C)c1cccc(C(=O)Nc2cc(-c3ccsc3)no2)c1`, the “% Inhibition” value was -9% and the Z score was 1.58. `CC(C)CCNC(=O)C[C@H](c1cccc(OCc2ccccc2)c1)c1c[nH]c2ccccc12` was tested, and the “% Inhibition” value was -15% and the Z score was 1.66. `O=C(CC1CCNCC1F)Nc1nccn1Cc1ccc(Br)cc1` (stereo unspecified) was tested, and the “% Inhibition” value was 3% and the Z score was -0.44. With `O=C(Nc1cccc(-c2nc3ccccc3s2)c1)c1cc[n+]([O-])cc1` the “% Inhibition” value was -15% and the Z score was 1.36. For `CN(C)S(=O)(=O)c1ccc(C(=O)NC[C@@]2(O)C=CCCC2)cc1`, the “% Inhibition” value was -9% and the Z score was 1.6. In the case of `Nc1nc2c(c(-c3cccnc3)n1)CN(C(=O)c1cccc(Cl)c1)C2`, the “% Inhibition” value is reported as -11% and the Z score is reported as 1.03. For `FC(F)(F)c1ccccc1-c1c[nH]c([C@@H]2CCCN2)n1`, the “% Inhibition” value was -1% and the Z score was 0.16. `COc1ccccc1N1CCN(Cc2nc(C(=O)NCc3cccnc3)co2)CC1` was tested, and the “% Inhibition” value was 6% and the Z score was -0.52. In the case of `CCn1c(-c2cccnc2)nc2cc(NC(=O)COC)cc(C(=O)NCCC3=CCCCC3)c21`, the “% Inhibition” value is reported as -12% and the Z score is reported as 1.5. With `COc1ccc(Cl)cc1C(=O)N1CC(c2nc(-c3cccc(C(F)(F)F)c3)no2)C1` the “% Inhibition” value was -7% and the Z score was 1.32. In the case of `CC[C@H]1CN(S(=O)(=O)CCc2ccc3c(c2)CCO3)CCN1CC(F)F`, the “% Inhibition” value is reported as 1% and the Z score is reported as -0.12. For `CN(C)CC(C)(C)CNC(=O)Nc1ccc(Cl)c2ncccc12`, the “% Inhibition” value was -18% and the Z score was 1.63. With `CCC(CC)C(=O)N1CCC(c2nnc(C(=O)Nc3cccc(Cl)c3)s2)CC1` the “% Inhibition” value was 7% and the Z score was -0.65. With `Oc1cc(CNCc2noc(-c3ccco3)n2)nc2c(F)cccc12` the “% Inhibition” value was -7% and the Z score was 1.3.
